Measurements from US20260297081A1, “COMPOUNDS AND METHODS OF TREATING CANCERS” (Cullgen Inc., priority 2023, published 2026).
At least one read-out could not be matched to a standard name with certainty.

Test system: CyclinD1 (CCND1)
Assay: Cyclin D1 (CCND1) percentage degradation in Calu-1 cells (Table 6)
Format: cell-based
Settings: 16 hours

SMILES: CNc1ccc(C(=O)Nc2ccc(N(C)C)nn2)c(NC2CC3(C2)CN(C(=O)C(C)(C)CN2CCN(c4ccc(Nc5ncc6c(C)c(C(C)=O)c(=O)n(C7CCCC7)c6n5)nc4)CC2)C3)n1 [CPD-118, 2-((2-(3-(4-(6-((6-Acetyl-8-cyclopentyl-5-methyl-7-oxo-7,8-dihydropyrido[2,3-d]pyrimidin-2-yl)amino)pyridin-3-yl)piperazin-1-yl)-2,2-dimethylpropanoyl)-2-azaspiro[3.3]heptan-6-yl)amino)-N-(6-(dimethylamino)pyridazin-3-yl)-6-(methylamino)nicotinamide]
- CyclinD1 Degradation (40 nM): A (degradation activity >80%)
- CyclinD1 Degradation (200 nM): A (degradation activity >80%)

SMILES: CC(=O)c1c(C)c2cnc(Nc3ccc(N4CCN(CC(=O)NC5CC6(C5)CC(Nc5nc(C(C)C)ccc5C(=O)Nc5cccc(C7CC7)n5)C6)CC4)cn3)nc2n(C2CCCC2)c1=O (stereo not drawn) [CPD-119, 2-((6-(2-(4-(6-((6-Acetyl-8-cyclopentyl-5-methyl-7-oxo-7,8-dihydropyrido[2,3-d]pyrimidin-2-yl)amino)pyridin-3-yl)piperazin-1-yl)acetamido)spiro[3.3]heptan-2-yl)amino)-N-(6-cyclopropylpyridin-2-yl)-6-isopropylnicotinamide]
- CyclinD1 Degradation (40 nM): D (degradation activity <30%)
- CyclinD1 Degradation (200 nM): A (degradation activity >80%)

SMILES: CC(=O)c1c(C)c2cnc(Nc3ccc(N4CCN(CC(=O)NC5CC6(C5)CC(Nc5nc(C)ccc5C(=O)Nc5cccc(C7CC7)n5)C6)CC4)cn3)nc2n(C2CCCC2)c1=O (stereo not drawn) [CPD-120, 2-((6-(2-(4-(6-((6-Acetyl-8-cyclopentyl-5-methyl-7-oxo-7,8-dihydropyrido[2,3-d]pyrimidin-2-yl)amino)pyridin-3-yl)piperazin-1-yl)acetamido)spiro[3.3]heptan-2-yl)amino)-N-(6-cyclopropylpyridin-2-yl)-6-methylnicotinamide]
- CyclinD1 Degradation (40 nM): D (degradation activity <30%)
- CyclinD1 Degradation (200 nM): A (degradation activity >80%)

SMILES: CC(=O)c1c(C)c2cnc(Nc3ccc(N4CCN(CC(=O)NC5CC6(C5)CC(Nc5nc(C(F)(F)F)ccc5C(=O)Nc5cccc(C7CC7)n5)C6)CC4)cn3)nc2n(C2CCCC2)c1=O (stereo not drawn) [CPD-121, 2-((6-(2-(4-(6-((6-Acetyl-8-cyclopentyl-5-methyl-7-oxo-7,8-dihydropyrido[2,3-d]pyrimidin-2-yl)amino)pyridin-3-yl)piperazin-1-yl)acetamido)spiro[3.3]heptan-2-yl)amino)-N-(6-cyclopropylpyridin-2-yl)-6-(trifluoromethyl)nicotinamide]
- CyclinD1 Degradation (40 nM): D (degradation activity <30%)
- CyclinD1 Degradation (200 nM): A (degradation activity >80%)

SMILES: CNc1ccc(C(=O)Nc2cccc(=O)[nH]2)c(NC2CC3(CC(NC(=O)CN4CCN(c5ccc(Nc6ncc7c(C)c(C(C)=O)c(=O)n(C8CCCC8)c7n6)nc5)CC4)C3)C2)n1 (stereo not drawn) [CPD-122, 2-((6-(2-(4-(6-((6-Acetyl-8-cyclopentyl-5-methyl-7-oxo-7,8-dihydropyrido[2,3-d]pyrimidin-2-yl)amino)pyridin-3-yl)piperazin-1-yl)acetamido)spiro[3.3]heptan-2-yl)amino)-6-(methylamino)-N-(6-oxo-1,6-dihydropyridin-2-yl)nicotinamide]
- CyclinD1 Degradation (40 nM): B (50%< degradation activity <80%)
- CyclinD1 Degradation (200 nM): A (degradation activity >80%)

SMILES: CNc1ccc(C(=O)Nc2ccc(C)c(=O)[nH]2)c(NCCCCCNC(=O)CN2CCN(c3ccc(Nc4ncc5c(C)c(C(C)=O)c(=O)n(C6CCCC6)c5n4)nc3)CC2)n1 [CPD-123, 2-((5-(2-(4-(6-((6-Acetyl-8-cyclopentyl-5-methyl-7-oxo-7,8-dihydropyrido[2,3-d]pyrimidin-2-yl)amino)pyridin-3-yl)piperazin-1-yl)acetamido)pentyl)amino)-N-(5-methyl-6-oxo-1,6-dihydropyridin-2-yl)-6-(methylamino)nicotinamide]
- CyclinD1 Degradation (40 nM): D (degradation activity <30%)
- CyclinD1 Degradation (200 nM): A (degradation activity >80%)

SMILES: CCc1ccc(C(=O)Nc2cccc(C3CC3)n2)c(NC2CC3(CC(NC(=O)CN4CCN(c5ccc(Nc6ncc7c(C)c(C(C)=O)c(=O)n(C8CCCC8)c7n6)nc5)CC4)C3)C2)n1 (stereo not drawn) [CPD-124, 2-((6-(2-(4-(6-((6-Acetyl-8-cyclopentyl-5-methyl-7-oxo-7,8-dihydropyrido[2,3-d]pyrimidin-2-yl)amino)pyridin-3-yl)piperazin-1-yl)acetamido)spiro[3.3]heptan-2-yl)amino)-N-(6-cyclopropylpyridin-2-yl)-6-ethylnicotinamide]
- CyclinD1 Degradation (40 nM): A (degradation activity >80%)
- CyclinD1 Degradation (200 nM): A (degradation activity >80%)

SMILES: CNc1ccc(C(=O)Nc2ccc(OC)c(C3CC3)n2)c(NC2CC3(CC(NC(=O)CN4CCN(c5ccc(Nc6ncc7c(C)c(C(C)=O)c(=O)n(C8CCCC8)c7n6)nc5)CC4)C3)C2)n1 (stereo not drawn) [CPD-125, 2-((6-(2-(4-(6-((6-Acetyl-8-cyclopentyl-5-methyl-7-oxo-7,8-dihydropyrido[2,3-d]pyrimidin-2-yl)amino)pyridin-3-yl)piperazin-1-yl)acetamido)spiro[3.3]heptan-2-yl)amino)-N-(6-cyclopropyl-5-methoxypyridin-2-yl)-6-(methylamino)nicotinamide]
- CyclinD1 Degradation (40 nM): A (degradation activity >80%)
- CyclinD1 Degradation (200 nM): A (degradation activity >80%)

SMILES: CNc1ccc(C(=O)Nc2cccc(C)n2)c(NC[C@H]2CC[C@H](NC(=O)CN3CCN(c4ccc(Nc5ncc6c(C)c(C(C)=O)c(=O)n(C7CCCC7)c6n5)nc4)CC3)CC2)n1 [CPD-126, 2-(((trans-4-(2-(4-(6-((6-Acetyl-8-cyclopentyl-5-methyl-7-oxo-7,8-dihydropyrido[2,3-d]pyrimidin-2-yl)amino)pyridin-3-yl)piperazin-1-yl)acetamido)cyclohexyl)methyl)amino)-6-(methylamino)-N-(6-methylpyridin-2-yl)nicotinamide]
- CyclinD1 Degradation (40 nM): D (degradation activity <30%)
- CyclinD1 Degradation (200 nM): A (degradation activity >80%)

SMILES: CNc1ccc(C(=O)Nc2cc(C(F)(F)F)n(C)n2)c(NC2CC3(CC(NC(=O)CN4CCN(c5ccc(Nc6ncc7c(C)c(C(C)=O)c(=O)n(C8CCCC8)c7n6)nc5)CC4)C3)C2)n1 (stereo not drawn) [CPD-127, 2-((6-(2-(4-(6-((6-Acetyl-8-cyclopentyl-5-methyl-7-oxo-7,8-dihydropyrido[2,3-d]pyrimidin-2-yl)amino)pyridin-3-yl)piperazin-1-yl)acetamido)spiro[3.3]heptan-2-yl)amino)-N-(1-methyl-5-(trifluoromethyl)-1H-pyrazol-3-yl)-6-(methylamino)nicotinamide]
- CyclinD1 Degradation (40 nM): D (degradation activity <30%)
- CyclinD1 Degradation (200 nM): D (degradation activity <30%)

SMILES: CNc1ccc(C(=O)Nc2ccc(F)c(C3CC3)n2)c(NC2CC3(CC(NC(=O)CN4CCN(c5ccc(Nc6ncc7c(C)c(C(C)=O)c(=O)n(C8CCCC8)c7n6)nc5)CC4)C3)C2)n1 (stereo not drawn) [CPD-128, 2-((6-(2-(4-(6-((6-Acetyl-8-cyclopentyl-5-methyl-7-oxo-7,8-dihydropyrido[2,3-d]pyrimidin-2-yl)amino)pyridin-3-yl)piperazin-1-yl)acetamido)spiro[3.3]heptan-2-yl)amino)-N-(6-cyclopropyl-5-fluoropyridin-2-yl)-6-(methylamino)nicotinamide]
- CyclinD1 Degradation (40 nM): A (degradation activity >80%)
- CyclinD1 Degradation (200 nM): A (degradation activity >80%)

SMILES: CNc1ccc(C(=O)Nc2cc(C)n(C)n2)c(NC2CC3(C2)CN(C(=O)CCN2CCN(c4ccc(Nc5ncc6c(C)c(C(C)=O)c(=O)n(C7CCCC7)c6n5)nc4)CC2)C3)n1 [CPD-129, 2-((2-(3-(4-(6-((6-Acetyl-8-cyclopentyl-5-methyl-7-oxo-7,8-dihydropyrido[2,3-d]pyrimidin-2-yl)amino)pyridin-3-yl)piperazin-1-yl)propanoyl)-2-azaspiro[3.3]heptan-6-yl)amino)-N-(1,5-dimethyl-1H-pyrazol-3-yl)-6-(methylamino)nicotinamide]
- CyclinD1 Degradation (40 nM): A (degradation activity >80%)
- CyclinD1 Degradation (200 nM): A (degradation activity >80%)

SMILES: CNc1ccc(C(=O)Nc2ccc(N(C)C)nn2)c(NC2CCC(NC(=O)CN3CCN(c4ccc(Nc5ncc6c(C)c(C(C)=O)c(=O)n(C7CCCC7)c6n5)nc4)CC3)CC2)n1 (stereo not drawn) [CPD-130, 2-((4-(2-(4-(6-((6-Acetyl-8-cyclopentyl-5-methyl-7-oxo-7,8-dihydropyrido[2,3-d]pyrimidin-2-yl)amino)pyridin-3-yl)piperazin-1-yl)acetamido)cyclohexyl)amino)-N-(6-(dimethylamino)pyridazin-3-yl)-6-(methylamino)nicotinamide]
- CyclinD1 Degradation (40 nM): A (degradation activity >80%)
- CyclinD1 Degradation (200 nM): A (degradation activity >80%)

SMILES: CNc1ccc(C(=O)Nc2cc(C)n(C)n2)c(NC[C@H]2CC[C@H](NC(=O)CN3CCN(c4ccc(Nc5ncc6c(C)c(C(C)=O)c(=O)n(C7CCCC7)c6n5)nc4)CC3)CC2)n1 [CPD-131, 2-(((trans-4-(2-(4-(6-((6-Acetyl-8-cyclopentyl-5-methyl-7-oxo-7,8-dihydropyrido[2,3-d]pyrimidin-2-yl)amino)pyridin-3-yl)piperazin-1-yl)acetamido)cyclohexyl)methyl)amino)-N-(1,5-dimethyl-1H-pyrazol-3-yl)-6-(methylamino)nicotinamide]
- CyclinD1 Degradation (40 nM): D (degradation activity <30%)
- CyclinD1 Degradation (200 nM): A (degradation activity >80%)

SMILES: CNc1ccc(C(=O)Nc2ccc(C#N)c(C3CC3)n2)c(NC2CC3(CC(NC(=O)CN4CCN(c5ccc(Nc6ncc7c(C)c(C(C)=O)c(=O)n(C8CCCC8)c7n6)nc5)CC4)C3)C2)n1 (stereo not drawn) [CPD-132, 2-((6-(2-(4-(6-((6-Acetyl-8-cyclopentyl-5-methyl-7-oxo-7,8-dihydropyrido[2,3-d]pyrimidin-2-yl)amino)pyridin-3-yl)piperazin-1-yl)acetamido)spiro[3.3]heptan-2-yl)amino)-N-(5-cyano-6-cyclopropylpyridin-2-yl)-6-(methylamino)nicotinamide]
- CyclinD1 Degradation (40 nM): D (degradation activity <30%)
- CyclinD1 Degradation (200 nM): B (50%< degradation activity <80%)
